# Laboratory results reported in the RNAGym collection of RNA variant scans (doi:10.1073/pnas.2313332121).
# Variants at the background level are over-represented here.
# B1: TPR 5TU (parent)
# chain: GGAUCUUCUCGAUCUAACAAAAAAGACAAAUCUGCCACAAAGCUUGAGAGCAUCUUCGGAUGCAGAGGCGGCAGCCUUCGGUGGCGCGAUAGCGCCAACGUUCUCAACUAUGACACGCAAAACGCGUGCUCCGUUGAAUGGAGUUUAUCAUG
# Variants of: B1
# Experiment: polymerase ribozyme fitness, log enrichment relative to wild type (log ratio); higher = more active; in vitro selection for triplet polymerase activity
# Method in brief: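 Input and output libraries were sequenced on Illumina after a single in vitro selection round, run in triplicate on PCR-built, transcribed mutant libraries of each subunit of a heterodimeric triplet polymerase ribozyme. Selection annealed libraries to a biotinylated primer, the partner subunit and triplets, incubated them frozen at −7 °C, then gel-excised extended constructs for streptavidin-bead capture and RT-PCR. Genotypes with ≥10 input reads and ≥1 read per output were kept. Fitness is the logarithm, taken in base 2, of genotype enrichment divided by wild-type enrichment, using inverse-variance-weighted replicate averages.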
row,Variant,polymerase ribozyme fitness (log ratio)
1,G59A G124U C125G G136U U139A U146A,≤ -4.2
2,G59C C96A C114U G140C,≤ -4.2
3,G58C G80C C95G A115G,≤ -4.2
4,G59A C85U A115G G140C,≤ -4.2
5,G59U G86A A147U,-0.0426
6,G62C C123A,-1.69
7,U61A U101G,-1.11
8,G62A G83C A107U,≤ -4.2
9,A60G G68C C85A A106U A122U G128A A147U,≤ -4.2
10,A60G C69A C108G C125G,≤ -4.2
11,C57U G58A A60C C76A C85G U90G C108U U134G,≤ -4.2
12,C57U G70A G83C U139G,≤ -4.2
13,A60G G100A G136U,≤ -4.2
14,G58A C87U G92A A150G,-0.884
15,A60G C75G,-2.36
16,U61A C85U A121U U148A U151A,≤ -4.2
17,A60U A89G G94A C96U C114U A121G U148G,≤ -4.2
18,G58U G81A A122G,-0.315
19,G58C U135G,-3.82
20,C57U C87U C103G,-1.94
21,G59U G67U A89G A137U A138U,≤ -4.2
22,A60C G74U U78G G81U U90C A120C,≤ -4.2
23,G58A G83C U90G C93U A106G C125U,≤ -4.2
24,G59A U78C G88U C96U U109G G140C,≤ -4.2

row,Variant,polymerase ribozyme fitness (log ratio)
1,U61A G68U A107G U145C A147C,≤ -4.2
2,U61A C76U C85U C96A A115G,≤ -4.2
3,A60G A73U G80U G88U A97C C118U,≤ -4.2
4,U61A C85U C108G C118G A142C U144C,≤ -4.2
5,C57U C132A G141U,≤ -4.2
6,C57U U61A G81C A107U,≤ -4.2
7,G58A G81A,-0.536
8,G58C C63U U102G A106U G126A C132A,≤ -4.2
9,G62A A91U U104G A142C,≤ -4.2
10,G58C G62C A73U G94A A107U U144A,≤ -4.2
11,G58A A73C C87G G94A,≤ -4.2
12,U61A G68A,≤ -4.2
13,U61G G86A,-2.45
14,C57U G58C A142C,0.768
15,G59U C85G C93A,≤ -4.2
16,G58C A122G A150C,-3.46
17,G62U U77A G86U C99G,≤ -4.2
18,A60U G71U C87G,≤ -4.2
19,C57U G92C A97C U145A,0.369
20,A60C A91C C116U,≤ -4.2
21,G59U G88C C116G,-3.85
22,U61C G80C C85U C99U U146A,≤ -4.2
23,A60U C96U G126U G141C,≤ -4.2
24,G59U G68U A137G,≤ -4.2

row,Variant,polymerase ribozyme fitness (log ratio)
1,G58U C87G C93G,≤ -4.2
2,C57U C69A G83C U90A C103G A137U,≤ -4.2
3,G59U A91U,-4.12
4,U61C U148C,≤ -4.2
5,A60U C85G C96U C105U,≤ -4.2
6,G59A G81A C99A C116U A150G,≤ -4.2
7,G58U G74C G84A C108A U127C,≤ -4.2
8,U61G U101C,-2.61
9,G62U C132A,≤ -4.2
10,G58U C123U,0.837
11,G62U G80C C87U A89U G126U,≤ -4.2
12,A60G U61G G81C A122C A142U,-3.02
13,G59C U61A A66C U101G C114U,≤ -4.2
14,G58C G80C C95U,≤ -4.2
15,U61A C93G U139A,≤ -4.2
16,C57U C95U,-1.55
17,U61C A73U A91U,≤ -4.2
18,U61A U77A C95U A97C U139A A150G,≤ -4.2
19,C57U G65C C85G,≤ -4.2
20,A60C C93A U130A A138C,≤ -4.2
21,G59A G94C,-0.903
22,G59C C63A G88A G141A,≤ -4.2
23,G58C A98U,-0.459
24,U61A A66U U82C G92C C95G,≤ -4.2

row,Variant,polymerase ribozyme fitness (log ratio)
1,C57U C63G G71A G86A C118U,≤ -4.2
2,U61A C123U U144C U148C,≤ -4.2
3,G59A G88C,-3.73
4,A60G G70A C87U G94U C96U,≤ -4.2
5,U61A C87U,-2.83
6,G58U G59A,0.429
7,G62A C96G G100C,≤ -4.2
8,G58A G86U,-1.12
9,U61G G92A,≤ -4.2
10,A60G C75A U90G C108G U135A A150U,≤ -4.2
11,U61A U104A C125U A147U,≤ -4.2
12,A60U A89C A142U,-2.09
13,G58C C85A U146A,≤ -4.2
14,G59A U78G G84U A120G G124U,≤ -4.2
15,G59C G80A C93A,-3.86
16,G59A U127C,-1.23
17,C57U C75U,0.237
18,G59C A106U,-0.917
19,G58C U134G,-3.93
20,A60C G62C C96U A138G U139A,≤ -4.2
21,A60G C99U A150C,-4.02
22,A60G G71A G141U,≤ -4.2
23,A60G G71A C95G C96U G128A U148A,≤ -4.2
24,A60U C99U C118U,-2.07

row,Variant,polymerase ribozyme fitness (log ratio)
1,U61A G94U C108U A120U G136A U151C,≤ -4.2
2,G58A C76G U90G A119G,≤ -4.2
3,G59A A66G C96U G143U,≤ -4.2
4,A60U G83C U109G A137C,≤ -4.2
5,C57U C79G C85G A91G A97C A122C,≤ -4.2
6,G58U U61A C87A C103G U146C G152A,≤ -4.2
7,G58A A121C,0.557
8,U61G A107U C132A U148C,≤ -4.2
9,U61A U78A C95U C123A U146A,≤ -4.2
10,G59U G88A U90G G94A A122G A137G A147C,≤ -4.2
11,G62C A64C,≤ -4.2
12,U61G G67C U77C C85A C93A G136A A138U G141U,≤ -4.2
13,G59A G86A,-2.02
14,C57U U78G A91G,≤ -4.2
15,G59A U90G C95G,≤ -4.2
16,A60G C87U U101A,-0.517
17,G58C C93U G100C C125A,≤ -4.2
18,U61A C85G,≤ -4.2
19,U61A C85A,-3.12
20,A60G U139C G141C U144A,-4.04
21,C57U G59C C95G C108U U148A,≤ -4.2
22,G58A G86U A119U,-2.06
23,G59C G86C C96U A121U U134A,≤ -4.2
24,G58U A91U,≤ -4.2

row,Variant,polymerase ribozyme fitness (log ratio)
1,G59C A60C G84U A106U U130A A150G,≤ -4.2
2,G59A A119U,-0.778
3,G59U G86A C103A,≤ -4.2
4,C57U U130G C131U,-4.19
5,G58A G80A U109C,≤ -4.2
6,G59U U102G,-3.26
7,U61G A122C,-1.51
8,U61A C72U G83C U102G G136C,≤ -4.2
9,G62A A64U C69U C76U G84A C105G C116G,≤ -4.2
10,U61G U90A G126U,≤ -4.2
11,U61G G136C,-2.91
12,G59C A73U C93G A113G C116G A120U A150C,≤ -4.2
13,C57U G70U G133U U139A G140U,≤ -4.2
14,G58C A64C C93A A97U U148A,≤ -4.2
15,G58C C63G G68U C123U,≤ -4.2
16,A60G A66G G83U G117A,≤ -4.2
17,G59C A60G C69U,-2.47
18,C57U A91C U146G,≤ -4.2
19,U61G C69G U82A C95A A122U U148C,≤ -4.2
20,A60G G84A C87U A97U C114A G152U,≤ -4.2
21,U61G C75U U144C,-1.52
22,U61A A97C,-1.48
23,G58U C85G,-1.61
24,U61A G71A C75U A137U G152C,≤ -4.2

row,Variant,polymerase ribozyme fitness (log ratio)
1,G59U C93G A122U U134G,≤ -4.2
2,G59A U78G G88C A150G,≤ -4.2
3,A60G C93A A97C A110U C123U U130G G133A,≤ -4.2
4,G59C U102G C132U U139G,≤ -4.2
5,U61A G86A A97U C99G A113U G152U,≤ -4.2
6,G58U A137C,-3.03
7,G58A C87U,-0.808
8,G59U C75U U78C C87A U101A,≤ -4.2
9,G58C C75G G92U C95A A119U U130G,≤ -4.2
10,U61C G83C A119C,≤ -4.2
11,U61G C85A G141A,-1.58
12,G59A A73G G86A G117C G126U U135G U144C,≤ -4.2
13,G58C C79G A107U U134A U139C,≤ -4.2
14,U61A U90G U139C,≤ -4.2
15,G58C A91G C105G A110G,≤ -4.2
16,G59C G71A G100A C129A,≤ -4.2
17,A60G G92A C96U A121C,-2.75
18,G59U G68C G84U C105A G124A G133C A142C,≤ -4.2
19,U61G A66C G133C,≤ -4.2
20,A60G U134G G143U,-3.39
21,G58U A60U A64U G88A U109A C129G,≤ -4.2
22,G58C G152A,-2.01
23,A60G U78G C79U G88A A142G,≤ -4.2
